The list shows a part of the results.

Cytotoxicity call and growth inhibition call data for 49 compounds are collected here from the antibiotic and cytotoxicity screens of Wong et al. (2023).

For test [1], the system named is HSkMC (human skeletal muscle cells). Briefly: cytotoxicity call (relative viability < 0.9). To be noted: 10 µM.
Test [2] relates to HepG2. Briefly: cytotoxicity call (relative viability < 0.9). To be noted: 10 µM.
Test [3] relates to S. aureus RN4220. Briefly: growth inhibition call (relative growth <= 0.2). To be noted: 50 µM.

Take `CC(C)(CCCCCC(O)CCCCCC(C)(C)C(=O)O)C(=O)O`: the cytotoxicity call in test [1] and in test [2] was “inactive” each time. Also, the growth inhibition call in test [3] is “inactive”.
As for `C[C@H]1CN([C@@H](C)CO)C(=O)Cc2cc(NC(=O)C3CCCCC3)ccc2O[C@@H]1CN(C)S(C)(=O)=O`, the cytotoxicity call in test [1] and in test [2] was “inactive” throughout. For the same compound, the growth inhibition call in test [3] was “inactive”.
Turning to `C[C@H](CO)N1C[C@H](C)[C@@H](CN(C)Cc2ccc(C(F)(F)F)cc2)OCCCC[C@H](C)Oc2ccc(NC(=O)Nc3ccc(F)cc3)cc2C1=O`, the cytotoxicity call in test [1] and in test [2] was “inactive” each time. Further, the growth inhibition call in test [3] was “inactive”.
With `CC(C)NC(=O)Nc1ccc2c(c1)CC(=O)N([C@H](C)CO)C[C@H](C)[C@@H](CN(C)S(=O)(=O)c1ccc(F)cc1)O2`, the cytotoxicity call in test [1] and in test [2] was “inactive” in each case. The growth inhibition call in test [3] was “inactive”.
Turning to `C[C@@H]1CN([C@@H](C)CO)C(=O)c2c(c3ccccc3n2C)-c2ccccc2CO[C@@H]1CN(C)Cc1cccc(O)c1`, the cytotoxicity call in test [1] and in test [2] was “inactive” each time. The growth inhibition call in test [3] was “inactive”.
Consider `CC(C)NC(=O)N(C)C[C@H]1Oc2c(NS(=O)(=O)c3cn(C)cn3)cccc2C(=O)N([C@H](C)CO)C[C@H]1C`, for which the cytotoxicity call in test [1] and in test [2] was “inactive” throughout. For the same compound, in test [3], the growth inhibition call was “inactive”.
Regarding `COc1ccc(S(=O)(=O)Nc2cccc3c2O[C@H](CN(C)Cc2ccc(Oc4ccccc4)cc2)[C@H](C)CN([C@@H](C)CO)C3=O)cc1`, in test [1], the cytotoxicity call was “inactive”. In addition, the cytotoxicity call in test [2] was “active”. Moreover, the growth inhibition call in test [3] was “inactive”.
`NC(=O)C12CC3C[C@@H](C1)C(=O)[C@@H](C3)C2`: the cytotoxicity call in test [1] and in test [2] was “inactive” each time. In test [3], the growth inhibition call was “inactive”.
Turning to `Cc1ccc(S(=O)(=O)N2C[C@H](O)COC[C@H]3O[C@H](CC(=O)N4CCc5ccccc5C4)CC[C@@H]32)cc1`, the cytotoxicity call in test [1] and in test [2] was “inactive” each time. In addition, in test [3], the growth inhibition call was “inactive”.
Turning to `O=C(C[C@@H]1CC[C@@H]2[C@H](COC[C@@H](O)CN2C(=O)c2ccncc2)O1)NCc1ccc(-c2ccccc2)cc1`, the cytotoxicity call in test [1] and in test [2] was “inactive” throughout. In addition, the growth inhibition call in test [3] was “inactive”.
In the case of `C[C@@H]1CCCCO[C@@H](CN(C)S(=O)(=O)c2cn(C)cn2)[C@@H](C)CN([C@H](C)CO)C(=O)c2cc(NS(=O)(=O)c3cccs3)ccc2O1`, the cytotoxicity call in test [1] and in test [2] was “inactive” throughout. The growth inhibition call in test [3] is “inactive”.
Consider `C[N+](C)(C)CCO.Cn1c(=O)c2[n-]cnc2n(C)c1=O`, for which the cytotoxicity call in test [1] and in test [2] was “inactive” throughout. Besides, in test [3], the growth inhibition call was “inactive”.
Turning to `C[C@H]1CN([C@@H](C)CO)S(=O)(=O)c2ccc(C#Cc3ccccc3)cc2O[C@H]1CN(C)C(=O)c1ccccn1`, the cytotoxicity call in test [1] and in test [2] was “inactive” each time. Besides, the growth inhibition call in test [3] is “inactive”.
Consider `CO[C@H]1O[C@H](COC(=O)NCCCCCC(=O)NO)[C@@H](OC(=O)c2ccccc2)[C@H](OC(=O)Nc2ccccc2-c2ccccc2)[C@@H]1OC(=O)Nc1ccccc1-c1ccccc1`, for which the cytotoxicity call in test [1] is “inactive”. Moreover, the cytotoxicity call in test [2] was “active”. In addition, in test [3], the growth inhibition call is “inactive”.
Take `Cc1ccc(S(=O)(=O)Nc2cccc3c2O[C@H](CN(C)C(=O)NC(C)C)[C@@H](C)CN([C@@H](C)CO)C3=O)cc1`: the cytotoxicity call in test [1] and in test [2] was “inactive” throughout. Besides, the growth inhibition call in test [3] is “inactive”.
With `C[C@@H]1CN([C@H](C)CO)C(=O)c2cc(NC(=O)Cn3cnnn3)ccc2O[C@@H]1CN(C)Cc1ccc(Cl)c(Cl)c1`, the cytotoxicity call in test [1] and in test [2] was “inactive” in each case. The growth inhibition call in test [3] is “inactive”.
Regarding `O=C(C[C@H]1CC[C@H]2[C@@H](COC[C@H](O)CN2C(=O)Nc2ccc(Cl)cc2)O1)NC1Cc2ccccc2C1`, the cytotoxicity call in test [1] and in test [2] was “inactive” in each case. In test [3], the growth inhibition call is “active”.
On to `CNC(=O)[C@@H](NC(=O)[C@H](CC(C)C)[C@H](O)C(=O)NO)C(C)(C)C`, for which the cytotoxicity call in test [1] and in test [2] was “inactive” each time. In addition, the growth inhibition call in test [3] is “inactive”.
`C[C@@H]1CN([C@H](C)CO)S(=O)(=O)c2ccc(-c3ccccc3F)cc2O[C@H]1CN(C)S(C)(=O)=O`: the cytotoxicity call in test [1] and in test [2] was “inactive” throughout. Also, the growth inhibition call in test [3] is “inactive”.
Take `C[C@@H]1CN([C@@H](C)CO)C(=O)c2cc(NC(=O)Nc3ccc(C(F)(F)F)cc3)ccc2O[C@@H](C)CCCCO[C@H]1CN(C)S(=O)(=O)c1cccs1`: the cytotoxicity call in test [1] and in test [2] was “inactive” in each case. In addition, the growth inhibition call in test [3] is “inactive”.
Consider `C[C@@H]1CCCCO[C@H](CN(C)Cc2ccncc2)[C@H](C)CN([C@@H](C)CO)C(=O)c2cc(NC(=O)c3ccccc3)ccc2O1`, for which, in test [1], the cytotoxicity call was “active”. For the same compound, the cytotoxicity call in test [2] was “inactive”. The growth inhibition call in test [3] is “inactive”.
With `C[C@H]1COC(=O)[C@@H](Cc2ccc(F)cc2)CCC=CC[C@@H](CC(=O)N[C@@H](CO)Cc2ccccc2)C(=O)N1`, the cytotoxicity call in test [1] and in test [2] was “inactive” each time. For the same compound, in test [3], the growth inhibition call was “inactive”.
In the case of `CC(C)NC(=O)N(C)C[C@H]1Oc2c(NC(=O)Nc3ccc4c(c3)OCO4)cccc2C(=O)N([C@H](C)CO)C[C@@H]1C`, the cytotoxicity call in test [1] and in test [2] was “inactive” throughout. In addition, the growth inhibition call in test [3] is “inactive”.
As to `O=C(C[C@@H]1C=C[C@H](NC(=O)C2CCOCC2)[C@@H](CO)O1)NCCc1cscn1`, the cytotoxicity call in test [1] and in test [2] was “inactive” throughout. Also, in test [3], the growth inhibition call is “inactive”.
For `NC(=S)Nc1nc2ccccc2[nH]c1=O`, the cytotoxicity call in test [1] and in test [2] was “inactive” each time. For the same compound, the growth inhibition call in test [3] is “inactive”.
With `O=C(C[C@@H]1C=C[C@H](NS(=O)(=O)c2ccccc2F)[C@@H](CO)O1)NCCCN1CCOCC1`, the cytotoxicity call in test [1] and in test [2] was “inactive” throughout. Also, the growth inhibition call in test [3] is “inactive”.
Turning to `C[C@@H]1CN([C@H](C)CO)C(=O)c2cc(NC(=O)NC3CCCCC3)ccc2O[C@@H]1CN(C)Cc1ccc(C(F)(F)F)cc1`, the cytotoxicity call in test [1] and in test [2] was “inactive” in each case. For the same compound, in test [3], the growth inhibition call was “inactive”.
In the case of `C[C@H]1CN([C@@H](C)CO)C(=O)Cc2cc(NC(=O)Cc3cn(C)c4ccccc34)ccc2O[C@H]1CN(C)Cc1ccc(Cl)c(Cl)c1`, the cytotoxicity call in test [1] is “active”. For the same compound, in test [2], the cytotoxicity call was “inactive”. Besides, the growth inhibition call in test [3] was “inactive”.
Regarding `O=C(C[C@@H]1CC[C@H]2[C@@H](COC[C@@H](O)CN2S(=O)(=O)c2ccc(Cl)cc2)O1)NCC1CCCCC1`, the cytotoxicity call in test [1] and in test [2] was “inactive” throughout. The growth inhibition call in test [3] is “active”.
Take `NCC[C@@H]1CC[C@@H](NC(=O)c2ccccc2F)[C@@H](CO)O1`: the cytotoxicity call in test [1] and in test [2] was “inactive” each time. Further, the growth inhibition call in test [3] was “inactive”.
In the case of `C[C@H](CO)N1C[C@H](C)[C@H](CN(C)S(=O)(=O)c2ccc(C#N)cc2)Oc2ncc(-c3ccccc3)cc2C1=O`, the cytotoxicity call in test [1] and in test [2] was “inactive” throughout. For the same compound, in test [3], the growth inhibition call was “inactive”.
`CO[C@@H]1CN(C)C(=O)c2cc(NC(=O)CC(F)(F)F)ccc2OC[C@H](C)N(C(=O)C2CCOCC2)C[C@@H]1C`: the cytotoxicity call in test [1] and in test [2] was “inactive” each time. Besides, the growth inhibition call in test [3] is “inactive”.
Take `Cc1ccc(S(=O)(=O)N(C)C[C@H]2OCCCC[C@H](C)Oc3ccc(NS(C)(=O)=O)cc3C(=O)N([C@@H](C)CO)C[C@@H]2C)cc1`: the cytotoxicity call in test [1] and in test [2] was “inactive” each time. The growth inhibition call in test [3] was “inactive”.
For the compound `Cc1ccc(S(=O)(=O)N(C)C[C@@H]2OCCCC[C@H](C)Oc3ccc(NC(=O)Cc4ccccc4)cc3C(=O)N([C@H](C)CO)C[C@@H]2C)cc1`, in test [1], the cytotoxicity call is “inactive”. In addition, the cytotoxicity call in test [2] is “active”. Further, the growth inhibition call in test [3] is “inactive”.
On to `C[C@@H]1CN([C@@H](C)CO)S(=O)(=O)c2ccc(C3=CCCCC3)cc2O[C@H]1CN(C)S(=O)(=O)c1cn(C)cn1`, for which the cytotoxicity call in test [1] and in test [2] was “inactive” each time. Besides, in test [3], the growth inhibition call was “inactive”.
In the case of `C[C@@H]1CN([C@@H](C)CO)C(=O)Cc2cc(NS(=O)(=O)c3ccccc3)ccc2O[C@H]1CN(C)Cc1ccncc1`, the cytotoxicity call in test [1] and in test [2] was “inactive” each time. Also, the growth inhibition call in test [3] is “inactive”.
As for `C[C@H]1CN([C@@H](C)CO)C(=O)c2cccc(NC(=O)c3cnccn3)c2O[C@@H]1CN(C)S(=O)(=O)c1ccc(Cl)cc1`, the cytotoxicity call in test [1] and in test [2] was “inactive” in each case. The growth inhibition call in test [3] is “inactive”.
Consider `C[C@H]1CN([C@@H](C)CO)C(=O)c2cccc(NC(=O)Nc3ccc(C(F)(F)F)cc3)c2O[C@@H]1CN(C)S(C)(=O)=O`, for which the cytotoxicity call in test [1] and in test [2] was “inactive” in each case. The growth inhibition call in test [3] was “inactive”.
As to `C[C@H](CO)N1C[C@H](C)[C@H](CN(C)Cc2ccc3c(c2)OCO3)OCCCC[C@H](C)Oc2ccc(NC(=O)Cc3ccccc3)cc2C1=O`, the cytotoxicity call in test [1] and in test [2] was “inactive” throughout. Besides, the growth inhibition call in test [3] is “inactive”.
In the case of `CCS(=O)(=O)Nc1ccc2c(c1)C(=O)N(C)[C@H]1CC[C@H](CC(=O)N[C@H]3CCN(Cc4ccccc4)C3)O[C@@H]1CO2`, the cytotoxicity call in test [1] and in test [2] was “inactive” in each case. Besides, the growth inhibition call in test [3] is “inactive”.
As to `C[C@@H]1CCCCO[C@@H](CN(C)S(C)(=O)=O)[C@H](C)CN([C@H](C)CO)C(=O)c2cc(NC(=O)Nc3cccc4ccccc34)ccc2O1`, the cytotoxicity call in test [1] and in test [2] was “inactive” each time. Also, the growth inhibition call in test [3] is “inactive”.
With `O=C(N[C@@H]1CC[C@@H](CCNS(=O)(=O)c2ccc(F)cc2)O[C@H]1CO)C1CC1`, the cytotoxicity call in test [1] and in test [2] was “inactive” each time. Besides, the growth inhibition call in test [3] is “inactive”.
Turning to `COc1ccc(S(=O)(=O)Nc2ccc3c(c2)CC(=O)N([C@H](C)CO)C[C@@H](C)[C@@H](CN(C)S(=O)(=O)c2ccc(F)cc2)O3)cc1`, the cytotoxicity call in test [1] and in test [2] was “inactive” each time. Also, the growth inhibition call in test [3] is “inactive”.
For `C=CCN([C@@H](Cc1ccccc1)[C@@H](O)c1cn(CCCNC(=O)C(=O)NC)nn1)S(=O)(=O)c1ccccc1[N+](=O)[O-]`, the cytotoxicity call in test [1] and in test [2] was “inactive” throughout. The growth inhibition call in test [3] was “inactive”.
On to `C[C@@H]1CN([C@H](C)CO)S(=O)(=O)c2ccc(C3=CCCCC3)cc2O[C@H]1CN(C)C(=O)C1CCOCC1`, for which the cytotoxicity call in test [1] and in test [2] was “inactive” in each case. The growth inhibition call in test [3] is “inactive”.
For the compound `O=C(C[C@@H]1CC[C@@H]2[C@H](COC[C@H](O)CN2C(=O)Nc2cccc(Cl)c2)O1)NCc1ccccc1F`, the cytotoxicity call in test [1] and in test [2] was “inactive” in each case. For the same compound, the growth inhibition call in test [3] is “inactive”.
For the compound `CS(=O)(=O)N1CCc2ccc(N)cc2C1`, the cytotoxicity call in test [1] and in test [2] was “inactive” each time. Also, in test [3], the growth inhibition call is “inactive”.
As to `C[C@@H]1CN([C@H](C)CO)C(=O)c2cc(Br)cnc2O[C@H]1CN(C)Cc1ccc2c(c1)OCO2`, the cytotoxicity call in test [1] and in test [2] was “inactive” in each case. Besides, in test [3], the growth inhibition call is “inactive”.
Turning to `N[C@@H]1CCN(O)C1=O`, the cytotoxicity call in test [1] and in test [2] was “inactive” throughout. Further, the growth inhibition call in test [3] was “inactive”.
